The source gives no read counts; variants with many changes may rest on few reads.
B1: LINE1-mini (parent)
chain: GGCAGAGCUCAACACAGCGUGGCAAAGUGGCUGUGGCUAGACUGCC

Variants of: B1
Test: self-cleavage, relative activity (ratio to wild type); higher = more cleavage; in vitro, sequencing; the parent is a self-cleaving ribozyme

Row | Variant | self-cleavage
1 | A26G G29A G35A | 0.11
2 | U9C C15G C18U G36A | 0.03
3 | G7A U34C G35C A41C C45A | 0.02
4 | C8U C10A G19C G29C G40A | 0.01
5 | G5U A12U U20A | 0.03
6 | G2C C10A A14U | 0.02
7 | G5A G30A G33U | 0.21
8 | G21U G30C G40A U43G C45A | 0.03
9 | G1C A25C U32C G33C G35C | 0.01
10 | G5A C15G U32G | 0.02
11 | A4G A6C C10G G40U | 0.01
12 | A25G G30A C31A | 0.33
13 | G2U G22U G33A U43C | 0.07
14 | G2U A14U C31A | 0.01
15 | G1A G17A U38G G40A | 0.01
16 | C3U C15U G22U A24U | 1.32
17 | A11U A39U C42A | 0
18 | C10A G19A G21A G29U U32G | 0.04
19 | A16C C23G A24G | 0.09
20 | G22A A24C C45A | 0.59
21 | G2A G27A C45G | 0.44

Row | Variant | self-cleavage
22 | A26C G30A C42G | 0
23 | C10A A11C A14C C18U G44A | 0.03
24 | G1C C3U C15G A41G U43C | 0.02
25 | G7A G21C G44U C45G | 0.04
26 | A6U G17A A24U U28C A39C | 0.07
27 | C15G G17U C31G | 0.03
28 | C3G A6C G27A | 0.51
29 | G1U G7U G22A G29A | 0.02
30 | G7A C13A G17C | 0.38
31 | A25G U32G C46A | 0.02
32 | G1U C3G G17U G40A | 0.04
33 | C3A A4U G22A A25U G36C | 0.62
34 | C15G G22U G44U | 0.01
35 | A4G C10U A25C C31A U34G | 0.05
36 | U9A G33A G40A | 0.05
37 | U9C G21C A41C | 0.03
38 | A6U A11C A26U C31U | 0.02
39 | G5U G35A U43C | 0.04
40 | U20C A24G G35U | 0.05
41 | G2A G36C U38A | 0.2
42 | G19U G27U C31G | 0.2

Row | Variant | self-cleavage
43 | C3G A6U C8U A16G A25G | 0.1
44 | C10A U20A G36A | 0.04
45 | G2A G7C G19U G35A | 0.39
46 | C10U G29A C31G | 0.25
47 | C15A G17A G27U U43A | 0.05
48 | G29U G30C C42G | 0.05
49 | A4U C8U C31A | 0.24
50 | C13A A14G G17C C23A A25C G33A G44U | 0.01
51 | C8U G27A G35A | 0.22
52 | A25U U38G G40U U43A | 0.06
53 | G1A G33C G35U C37G | 0.04
54 | G2A C10G G19A | 0.06
55 | G1C C13A G17A G30C G33C U34A G44U | 0
56 | G5U A25G G35U | 0.01
57 | C8U A24U G27C A39C | 0.08
58 | C3A A24G A25C U28A | 0.2
59 | G5C C18A U43G G44A | 0.03
60 | A6G A12U G17C U32G C37A | 0.03
61 | U9C C13U A16U G35C | 0.02
62 | C3A A25C G33U C45G | 0.11
63 | C8A C13U G19C G21A | 0.29

Row | Variant | self-cleavage
64 | U9G G22C C37U U38G | 0.02
65 | G21U C23A C45U | 0.96
66 | C3U G22A G33C C46U | 0.06
67 | A12C A25C U38A A39U | 0.01
68 | A11C G17A A24G G29U C37U | 0
69 | G1U G17A U20C C45U | 0.29
70 | A4U U9A U34G A41U | 0.13
71 | G2U G35A C45U | 0.02
72 | G2U C10A U20C A26C | 0.04
73 | G7A C15G A41C C45G C46A | 0.05
74 | C10A G30A G44C | 0.02
75 | C8A A12U G30A | 0.2
76 | A6G C10G C13G U20A G29A | 0.01
77 | G7C G29C C31G C37G C45A | 0.01
78 | G5C A11G C15U A26G C46U | 0.02
79 | C10A G21U U32G | 0.04
80 | G7U A11U G17A U34C U43A C46A | 0.01
81 | G7U A12G C46U | 0.03
82 | G7A C8U G17A C45U | 0.19
83 | C10A C13U C31G C46U | 0.02
84 | G1C G21U A25G | 0.01

— the RNAGym collection of RNA variant scans (doi:10.7554/elife.90254)
